# From PubChem BioAssay AID504332 (National Center for Advancing Translational Sciences (NCATS), 2011)
# Several values for one entry are separate records, joined by “and”; a condition that tells them apart may be missing. Identical values can stand only once. About 31,000 (8.9%) of roughly 350,000 compounds were called active. Inconclusive means that the source gave no clear call. Such entries were picked first, then a sample of the others. Calls come from the whole dose curve; as a rule, active = well fitted inhibition curve with a large enough effect; inconclusive = small, poorly fitted or top-dose-only effect; inactive = no such curve, though single readings can be large or run the other way. Where the call is inconclusive, the potency comes from a doubtful curve fit. Some structures have more than one record in an assay (separate samples or runs), and their calls can disagree.
# Target: Histone-lysine N-methyltransferase EHMT2 (Homo sapiens) (UniProt Q96KQ7)
# Assay: qHTS Assay for Inhibitors of Histone Lysine Methyltransferase G9a; note: nearly all actives have a fitted effect of over 75% in size
# Conditions: G9a H3K9 monomethylation, AlphaScreen, 2 h; activity, negative = inhibition: at 59 µM (top of the series) unless noted
# How it was run: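 Readings reflect AlphaScreen signal from monomethyl-H3K9 antibody detection. HMT at 20 nM; substrate b-H3K9 500 nM; cofactor SAM 20 uM; 2 h RT reaction; compounds tested as titrations in qHTS with 15 min preincubation.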
# % is set by controls: 0 for no effect and ±100 for the full control effect; potency is the fitted concentration of half-maximal effect; tags give direction and shape of the fitted curve.
# Sequence of UniProt Q96KQ7 (Q96KQ7 whole entry, looked up): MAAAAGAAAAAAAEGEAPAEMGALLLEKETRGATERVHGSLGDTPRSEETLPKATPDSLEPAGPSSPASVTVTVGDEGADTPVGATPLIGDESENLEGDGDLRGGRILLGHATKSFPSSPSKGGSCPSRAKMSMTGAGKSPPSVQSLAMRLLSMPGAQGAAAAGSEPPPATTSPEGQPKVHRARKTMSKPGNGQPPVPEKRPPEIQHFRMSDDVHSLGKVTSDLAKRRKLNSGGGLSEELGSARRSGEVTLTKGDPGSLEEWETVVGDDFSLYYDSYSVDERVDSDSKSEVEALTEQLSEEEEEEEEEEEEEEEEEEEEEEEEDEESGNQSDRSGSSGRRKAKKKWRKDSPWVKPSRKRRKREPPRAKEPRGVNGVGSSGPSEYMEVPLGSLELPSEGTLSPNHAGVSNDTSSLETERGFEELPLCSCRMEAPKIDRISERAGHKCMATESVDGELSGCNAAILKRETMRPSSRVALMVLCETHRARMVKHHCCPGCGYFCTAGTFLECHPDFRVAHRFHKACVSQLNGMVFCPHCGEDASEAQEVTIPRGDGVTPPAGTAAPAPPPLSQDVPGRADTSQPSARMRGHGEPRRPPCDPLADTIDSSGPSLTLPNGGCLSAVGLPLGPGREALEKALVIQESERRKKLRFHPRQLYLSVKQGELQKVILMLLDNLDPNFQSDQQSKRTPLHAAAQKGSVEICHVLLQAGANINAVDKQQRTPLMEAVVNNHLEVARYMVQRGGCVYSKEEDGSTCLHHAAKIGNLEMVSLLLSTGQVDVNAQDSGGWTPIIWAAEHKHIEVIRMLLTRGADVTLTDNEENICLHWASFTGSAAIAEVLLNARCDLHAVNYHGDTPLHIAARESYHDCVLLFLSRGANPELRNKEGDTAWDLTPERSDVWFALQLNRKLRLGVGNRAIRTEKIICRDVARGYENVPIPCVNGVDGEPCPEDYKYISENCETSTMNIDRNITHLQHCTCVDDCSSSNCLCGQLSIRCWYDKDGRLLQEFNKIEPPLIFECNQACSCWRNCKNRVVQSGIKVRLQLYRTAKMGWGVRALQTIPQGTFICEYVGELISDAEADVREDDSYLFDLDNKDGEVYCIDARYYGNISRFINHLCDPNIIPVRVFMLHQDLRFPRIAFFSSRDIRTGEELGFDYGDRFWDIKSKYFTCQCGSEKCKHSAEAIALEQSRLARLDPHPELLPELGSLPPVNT
SMILES,"activity, negative = inhibition",Potency
CC(=NCCCN1CCCCC1)c1c(O)n(Cc2ccccc2)c(=O)[nH]c1=O,inactive: -5.08% [at 12.7 µM],
CCCCC(=O)N/N=C/c1c(O)n(CCc2ccc(OC)c(OC)c2)c(=O)[nH]c1=O,,"inconclusive: 3.55 µM [inhibitor, single point]"
COc1ccc(C2=NOC(COC(=O)c3ccc4ccccc4n3)C2)cc1 (stereo unspecified),,"inconclusive: 39.8 µM [inhibitor, single point]"
CCCN1CCCC(c2cccc(O)c2)C1 (stereo unspecified),inactive: -16% [at 12.7 µM],
Cc1c(N=Cc2c(O)n(CCc3ccc(F)cc3)c(=O)[nH]c2=O)c(=O)n(-c2ccccc2)n1C,,"inconclusive: 39.8 µM [inhibitor, partial curve, poor fit]"
CC1(C)C(O)CC(=O)[C@]2(C)C1CC(=O)[C@]1(C)C2CC[C@@]2(C)C(c3ccoc3)OC(=O)C3O[C@@]321 (stereo partly specified),inactive: -6.12% [at 2.33 µM],
c1csc(CN2CCNCC2)c1,,"inconclusive: 39.8 µM [inhibitor, partial curve, poor fit]"
CC(C)Nc1ccc(Nc2ccccc2)cc1,,active: 5.01 µM and active: 1.58 µM
Cc1cc(C(=O)NP(=O)(N2CCOCC2)N2CCOCC2)c(C)n1C1CC1,,"inconclusive: 70.8 µM [inhibitor, single point]"
O=c1[nH]c(=S)[nH]c(O)c1C(c1ccccn1)c1c(O)[nH]c(=S)[nH]c1=O,,active: 5.01 µM
CCN(CC)c1ccc(CNCCc2ccc(F)cc2)cc1,,active: 12.6 µM
Cc1ccc(-n2c(O)c(C=NCCN(C)C)c(=O)[nH]c2=O)cc1,,"inconclusive: 70.8 µM [inhibitor, partial curve, poor fit]"
O=C(c1sc2ccccc2c1Cl)N1CCC2(CC1)OCCO2,,"inconclusive: 22.4 µM [inhibitor, partial curve, poor fit]"
O=c1[nH]c(=S)[nH]c(O)c1CN1CCCCC1,,"inconclusive: 31.6 µM [inhibitor, single point]"
Cc1ccccc1-n1c(C)cc(/C=C2/C(=O)NC(=O)N(Cc3ccco3)C2=O)c1C,,"inconclusive: 39.8 µM [inhibitor, single point]"
CCOc1ccc(N=C2SCCCN2C)cc1,,active: 3.55 µM
O=c1[nH]c(=S)[nH]c(O)c1N=Nc1ccc2c(c1)OCCO2,,"inconclusive: 70.8 µM [inhibitor, partial curve]"
CN1c2cc(O)c(N=NC(N)=O)cc2CC1S(=O)(=O)O (stereo unspecified),,"inconclusive: 2 µM [inhibitor, partial curve, poor fit]"
CCCCNC(=O)c1c(N)n(CCCOC)c2nc3ccccc3nc12,inactive: 65.9%,
COc1ccc(-n2c(O)c(C=NCCN3CCN(C(C)=O)CC3)c(=O)[nH]c2=S)cc1,,"inconclusive: 89.1 µM [inhibitor, single point]"
Oc1cccc[c]1[Hg][Cl],,"inconclusive: 0.794 µM [inhibitor, full curve, poor fit]"
O=C(NC(=O)N1CCC2(CC1)OCCO2)c1ccc(Cl)cc1,,"inconclusive: 28.2 µM [inhibitor, full curve]"

SMILES,"activity, negative = inhibition",Potency
COC(=O)C1=C(c2ccc(F)cc2OCc2ccccc2)C[C@@H]2CC[C@H]1N2C(=O)NCc1cccc(OC)c1,inactive: -9.01% [at 2.33 µM],
FC(F)(F)c1ccccc1CN1CCN(Cc2ccccc2)CC1,,active: 3.16 µM
CCOc1ccc(-n2c(O)c(C=NCCCn3ccnc3)c(=O)[nH]c2=O)cc1,,"inconclusive: 39.8 µM [inhibitor, partial curve, poor fit]"
Cc1ccc(N2CC(C(=O)Nc3nnc(SCC(=O)Nc4cc(C)on4)s3)CC2=O)cc1 (stereo unspecified),,"inconclusive: 22.4 µM [inhibitor, single point]"
Cc1[nH]c2c(Cl)cccc2c(=O)c1CN1CCCCCC1,,"inconclusive: 89.1 µM [inhibitor, partial curve, poor fit]"
O=C(N/N=C/c1cccc([N+](=O)[O-])c1)c1cnccn1,,"inconclusive: 31.6 µM [inhibitor, single point]"
Oc1ccc(/C=N/NP(=S)(c2ccccc2)c2ccccc2)c(O)c1O,,"inconclusive: 2.51 µM [inhibitor, full curve, poor fit]"
Cc1ccccc1N1C(=O)CC(=O)N(c2ccccc2C)C1=O,inactive: 0.706%,
Clc1ccc(CCNCc2ccncc2)c(Cl)c1,,active: 3.98 µM
CC(=O)NC(=O)c1ccccc1O,,"inconclusive: 3.98 µM [inhibitor, partial curve, poor fit]"
COc1cccc(NC(=O)c2ccc[n+](C)c2)c1,,active: 39.8 µM
CC(C(=O)c1c[nH]c2ccccc12)N1CCN(C(=O)c2ccco2)CC1 (stereo unspecified),,"inconclusive: 89.1 µM [inhibitor, single point]"
O=C(O)COc1ccccc1/C=C1\C(=O)NC(=O)N(CCC2=CCCCC2)C1=O,,active: 50.1 µM
Cc1c(C(=O)Nc2ccccc2)cc(-c2ccccc2)n1CCCN1CCOCC1,,"inconclusive: 39.8 µM [inhibitor, partial curve]"
CCCCOC(=O)CCN1C(=O)/C(=C2\SC(=S)N(CCC(=O)OCCCC)C2=O)SC1=S,,"inconclusive: 31.6 µM [inhibitor, single point]"
COc1ccc(/C=C2/C(=O)NC(=O)N(Cc3ccco3)C2=O)cc1,,active: 10 µM
CN1CCN(c2ccc(N)cc2Cl)CC1,,active: 39.8 µM
CC(C)c1ccc(-n2c(O)c(C=NCCN3CCNCC3)c(=O)[nH]c2=S)cc1,,"inconclusive: 1.78 µM [inhibitor, full curve]"
CN1OCC2Cn3c(nc4ccccc43)C21 (stereo unspecified),,"inconclusive: 2 µM [inhibitor, partial curve, poor fit]"
COc1ccc(/C=C2/C(=O)NC(=O)N(c3ccc(C)c(C)c3)C2=O)cc1CN1C(=O)c2ccccc2C1=O,,active: 11.2 µM
COc1ccc2c(c1)c(C(=O)O)c(C)n2CC(C)C,inactive: 8.79% [at 12.7 µM],
CN(CCC#N)C(=O)Cn1nc(Cc2ccncc2)c2ccccc2c1=O,,"inconclusive: 89.1 µM [inhibitor, single point]"

SMILES,"activity, negative = inhibition",Potency
COc1ccc(CCN(C)Cc2ccncc2)cc1OC,,"inconclusive: 10 µM [inhibitor, single point]"
COC(=O)c1nc(-c2ccc3c(n2)C(=O)C(N)=C(OC)C3=O)c(N)c(-c2ccc(OC)c(OC)c2O)c1C,,active: 10 µM
c1cncc(CNC2=NCCC2)c1,inactive: 11.8%,
COc1cccc(C2(C#N)CCN(C)CC2)c1,inactive: -47.7% [at 102 µM],
CC[C@]1(O)CC(O[C@@H]2CC(N(C)C)C(O)C(C)O2)c2c(cc3c(c2O)C(=O)c2c(O)cccc2C3=O)C1C(=O)OC (stereo partly specified),inconclusive: -100% [inhibitor] [at 2.33 µM],
CCCCC(=O)N/N=C/c1c(O)n(CC)c(=S)n(CC)c1=O,,"inconclusive: 89.1 µM [inhibitor, single point]"
Cc1oc(-c2ccccc2F)nc1CS(=O)CC(=O)N1CCC2(CC1)OCCO2 (stereo unspecified),,"inconclusive: 89.1 µM [inhibitor, single point]"
COc1ccc(CNCCc2ccccc2F)c(OC)c1C,,active: 79.4 µM
COc1ccc(CNC(=O)/C=C/c2ccc3[nH]cc(CCN(C)C)c3c2)cc1,,inactive and active: 39.8 µM
COC1C(O)C(C)O[C@H](OC2CC[C@@]3(C=O)C4CC[C@]5(C)C(C6=CC(=O)OC6)CC[C@@]5(O)C4CC[C@@H]3C2)C1O (stereo partly specified),inactive: -6.97% [at 2.33 µM],
COc1ccc(OCC(=O)Nc2ccc(Cl)cc2C(=O)c2ccccc2)cc1,,"inconclusive: 50.1 µM [inhibitor, partial curve, poor fit]"
Cc1cccc(C2=NCC(=O)N(CC(=O)NCc3ccco3)c3sc4c(c32)CCCC4)c1,inconclusive: -57.5% [inhibitor],
NC(=O)c1ccc(OCC(O)CN2CC=C(c3ccc(F)cc3)CC2)cc1 (stereo unspecified),,"inconclusive: 44.7 µM [inhibitor, partial curve] and inconclusive: 37.7 µM [inhibitor, single point]"
CCN1C[C@]2(C)CC[C@H](O)[C@@]34[C@@H]5C[C@@H]6[C@@H](OC)C[C@@](O)(C5[C@H]6O)[C@@H](C[C@@H]23)[C@@H]14,inactive: 15% [at 12.7 µM],
Cc1ccc(NC(=O)N(Cc2ccc3c(c2)OCO3)C2CCN(Cc3ccccc3)CC2)cc1C,,"inconclusive: 11.2 µM [inhibitor, partial curve]"
CCOC(=O)CN1C(=O)CC(C[C@@H](O)C2C[C@@H](C)C[C@H](C)C2=O)CC1=O (stereo partly specified),,"inconclusive: 3.16 µM [inhibitor, partial curve, poor fit]"
COc1ccc(N2C(=O)/C(=C/c3ccco3)C(=O)NC2=S)cc1,,"inconclusive: 1.12 µM [inhibitor, single point]"
NC(N)=NCCC[C@H](N)C(=O)O,inactive: 54% [at 12.7 µM],
Cc1nn(Cc2ccccc2)c(C)c1C=C1C(=O)NC(=O)NC1=O,inactive: -5.56%,
Cc1ncc2n1-c1ccc(Cl)cc1C(c1ccccc1F)=NC2,,"inconclusive: 2 µM [inhibitor, partial curve, poor fit]"
c1ccc2c(N3CCNCC3)nsc2c1,,"inconclusive: 79.4 µM [inhibitor, partial curve, poor fit]"
CC/C(=N\NC(=O)c1ccccc1O)c1c(O)n(C2CCCCC2)c(=O)[nH]c1=O,,"inconclusive: 39.8 µM [inhibitor, partial curve, poor fit]"
